# In all, about 33,000 sequences were measured (“E-score (-0.5 to 0.5)”: median about -0.021, highest 2% from about 0.32 on). This is one part of the list.
# Biological target: T1, Zap1 (UniProt P47043)
# T1 sequence: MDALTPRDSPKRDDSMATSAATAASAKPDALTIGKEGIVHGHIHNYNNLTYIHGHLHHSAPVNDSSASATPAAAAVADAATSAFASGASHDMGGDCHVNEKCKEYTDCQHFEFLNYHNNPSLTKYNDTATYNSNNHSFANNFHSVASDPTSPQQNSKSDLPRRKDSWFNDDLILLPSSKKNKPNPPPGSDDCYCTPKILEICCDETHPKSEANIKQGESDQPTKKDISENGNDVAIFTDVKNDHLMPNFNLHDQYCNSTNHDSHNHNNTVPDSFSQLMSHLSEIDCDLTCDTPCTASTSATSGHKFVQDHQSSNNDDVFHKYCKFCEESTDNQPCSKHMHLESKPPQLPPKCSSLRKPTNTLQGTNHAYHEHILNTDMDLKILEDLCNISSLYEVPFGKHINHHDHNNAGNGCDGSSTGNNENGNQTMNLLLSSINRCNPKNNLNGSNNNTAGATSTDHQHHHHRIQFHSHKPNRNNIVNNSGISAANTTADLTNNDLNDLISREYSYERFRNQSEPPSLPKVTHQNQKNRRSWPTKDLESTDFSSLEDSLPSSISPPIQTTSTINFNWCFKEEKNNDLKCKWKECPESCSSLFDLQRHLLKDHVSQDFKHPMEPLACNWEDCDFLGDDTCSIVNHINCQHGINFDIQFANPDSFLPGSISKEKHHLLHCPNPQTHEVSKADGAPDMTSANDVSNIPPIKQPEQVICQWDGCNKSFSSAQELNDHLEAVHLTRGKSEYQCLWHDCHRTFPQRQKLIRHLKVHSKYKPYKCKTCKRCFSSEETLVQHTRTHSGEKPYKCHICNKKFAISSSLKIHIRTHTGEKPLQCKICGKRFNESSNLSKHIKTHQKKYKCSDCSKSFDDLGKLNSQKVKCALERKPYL
# Assay: PBM E-score (8-mer binding enrichment) (E-score (-0.5 to 0.5)); higher = stronger / more preferred TF binding; most listed sequences are background and not binding sites
# Details: protein concentration: 200 nM; construct: GST-full length
# Procedure, shortened: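 E-scores (a modified Wilcoxon-Mann-Whitney statistic) were assigned by the Universal PBM Analysis Suite to every ungapped eight-base word pooled with its reverse complement. The input came from universal all-10-mer Agilent arrays made double-stranded by primer extension and probed with GST-tagged yeast transcription factors at about 100-200 nM. Fluorescent anti-GST detected bound protein, and masliner normalised the scans.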
row,Sequence,PBM E-score
1,AGTACATC,-0.0149
2,ACGCCCAA,-0.0258
3,CGGCTGGA,-0.209
4,AGTAATAC,0.0329
5,ACCTCTAG,0.411
6,AAAGTAAC,0.0452
7,GGCGCAAC,-0.0302
8,AGTGAATA,0.00413
9,GTGCACTA,-0.0272
10,CACTAGTC,-0.185
11,AAGGAAGG,-0.0888
12,GCTGTCAA,-0.0461
13,TCAGAACA,-0.0665
14,CCCACGGG,0.0915
15,AAGTGAGT,-0.196
16,CGGTAAGA,0.0399
17,ACCAGTGC,-0.121
18,CAAGCTCC,-0.225
19,AACTGTGC,-0.177
20,CATTGCGC,-0.185
21,GGCACCAC,0.0803
22,AATTCCCT,0.133
23,TAAGTATA,0.227
24,ATCACCGA,0.0268
25,ATAGACCA,-0.0294

row,Sequence,PBM E-score
1,TCCCCAGA,-0.0559
2,GCGAGTAA,0.187
3,CCCTGTCA,-0.145
4,CGAACCAG,0.196
5,GGTTGTTA,0.355
6,AATGCAAT,-0.138
7,ACCCTGGA,0.161
8,AGGGCAGA,-0.191
9,TCTACCAA,-0.0622
10,ATCGAGCG,-0.124
11,GATCTACA,-0.14
12,ACAGACCT,0.121
13,AGTACCCG,0.266
14,ACGGTTGA,0.0358
15,CAAAGGTC,0.314
16,AAAATTCA,0.107
17,CCAGTCGA,-0.0777
18,AATCGGAT,-0.0692
19,GGGAACGA,-0.201
20,AGTCTTCG,-0.116
21,CAGTGGGA,-0.071
22,CATCAAAC,-0.016
23,GGGTTGGA,0.16
24,CCCACAAA,0.31
25,CGGAGAAG,-0.138

row,Sequence,PBM E-score
1,CTTACGGA,-0.174
2,AAATAGTG,0.119
3,CTCCTGGC,-0.229
4,AACTCTCA,-0.0905
5,AGTAAGAT,-0.0474
6,GACTGGAA,-0.171
7,CAGTGTTC,0.00957
8,AAATCTGT,-0.038
9,AAAATAGT,-0.0378
10,AGCCCAAG,-0.0904
11,ATCTCGTC,-0.165
12,CCACTGCG,0.134
13,GAGCGGCC,-0.111
14,ACAAGCGA,-0.0588
15,CCTGATAC,0.148
16,CACGCTGC,-0.276
17,ACTTAACG,-0.056
18,GATCTCTA,-0.159
19,CCTTCGAC,-0.0453
20,CAAGAGGC,-0.0842
21,AGGTCCAC,0.0357
22,AAAGCGGT,0.131
23,ATGTTCGC,-0.159
24,CACCTATG,-0.0649
25,ACCTGTCA,0.232

row,Sequence,PBM E-score
1,CTGCTCTA,-0.0882
2,ATAGATGG,-0.195
3,GCGTGCTA,-0.268
4,CATGTTCC,-0.208
5,ACACCTAG,-0.181
6,CGGCACGA,-0.118
7,CAATTATA,0.121
8,CGCCTTTA,0.057
9,GCTTGTGA,-0.0677
10,CCAGTCTA,-0.143
11,CGGTAGTA,0.107
12,GCTGCCTA,-0.185
13,ACGGGTGC,-0.0644
14,AAATCTAC,0.051
15,AATATATG,0.0581
16,CGTCAGCA,-0.0127
17,AGTACTCC,-0.1
18,ACACGGGC,-0.377
19,AACAGTCT,-0.14
20,AATTTTCT,-0.131
21,GATCTAAC,0.0652
22,AACAAAGT,0.156
23,CCCGATTC,-0.0858
24,ATAAATCC,-0.00924
25,ATTTGAAC,0.125

row,Sequence,PBM E-score
1,ACACTGAC,0.0646
2,AAAGGGCG,0.0277
3,TACGCCAA,-0.119
4,CCCGCCAC,0.156
5,CGATACAC,-0.0446
6,CTTCGTCA,0.052
7,CGCCGAGA,0.0152
8,ACCGTTCG,0.102
9,CGTGGCTA,-0.159
10,CATCAGCA,-0.206
11,GATCCATC,-0.25
12,AATCAATA,0.0971
13,CATTGGGA,-0.0338
14,CGCTCTGA,-0.153
15,ACGAAGAC,-0.0678
16,CCCCGGTC,0.175
17,CCCCTCCG,0.157
18,AAGTGTTG,0.0499
19,AACCAATA,0.225
20,AACGAACC,0.176
21,TACAGTCA,0.0259
22,TGCCCCCA,-0.27
23,CCAGTTGC,-0.0528
24,ATCATTAA,0.109
25,TGAGAGCA,-0.0313

row,Sequence,PBM E-score
1,ACAGCGAA,0.0125
2,GACCAGAA,0.157
3,GCGAGGCC,-0.0129
4,ACCAACCG,0.121
5,ACGAATAA,0.187
6,GCCGGGCC,-0.202
7,GGGCCTTA,-0.00342
8,AGGTCTCG,0.0357
9,GTTTCGAA,0.0504
10,AGCCCCCA,-0.254
11,TCCTTGCA,-0.0343
12,GTACGAAC,0.157
13,GCAGAACA,0.119
14,AAATGATT,0.172
15,AGATATCC,-0.00055
16,ATGTCAGA,-0.228
17,TCCGTGAA,-0.0169
18,CTACTGGA,-0.117
19,AGCGAACA,-0.073
20,ACGATCGC,-0.0324
21,AGGGACAA,-0.0394
22,ACCCCCTA,-0.354
23,GTAAAGGA,-0.0539
24,CACTTGAG,-0.134
25,TAAGAGCA,-0.0274

row,Sequence,PBM E-score
1,GCGAATCA,-0.093
2,CCAAGGCC,0.105
3,ATGAGTGG,-0.106
4,GCTTAGAC,-0.247
5,CAATAAAG,0.144
6,ACGCGCAT,-0.115
7,CCCCTGGA,-0.00303
8,CACGAACA,0.139
9,TCCTGGCA,0.0196
10,ATGTTTGA,0.13
11,CATGTATA,-0.12
12,GCGCTCCC,-0.00907
13,CGCCGGGA,-0.222
14,ATGCTGTG,-0.136
15,ATAACGTA,0.111
16,AGTGTTTC,-0.0626
17,TGCTCACA,-0.0942
18,AGTTGAAC,-0.149
19,ATACTCGG,-0.062
20,AAGAATAC,-0.011
21,ACGAGGCG,-0.0842
22,GACAATTA,0.111
23,CGGAGTAG,-0.149
24,CCGAGGAG,-0.235
25,AGATAGCT,-0.153

row,Sequence,PBM E-score
1,AATTAGGG,0.0566
2,ACGAACAA,0.209
3,ACTGTGTC,0.0641
4,GCCACACA,-0.0586
5,CACGCACA,-0.0309
6,GAAGAATA,0.00757
7,AGTGTAAC,0.137
8,CGGGGACG,-0.238
9,ACAATCAC,-0.0476
10,AGGGAGCC,-0.236
11,CTGGCTAA,-0.108
12,CAATGGTA,0.244
13,GCAGGCGC,-0.239
14,ATTCGAAC,-0.00606
15,GCGCACGC,-0.14
16,ACTTACGC,-0.0874
17,CGCCCCCG,-0.269
18,TGGATGAA,-0.119
19,GACTCTGA,-0.0392
20,GTCGGGGA,0.0139
21,AAGGCCCC,0.069
22,GTCTTATA,-0.0765
23,ACAGGGCA,-0.0556
24,AGCACTCC,-0.119
25,CACCTGTC,0.0585

row,Sequence,PBM E-score
1,GGTATTCA,0.0895
2,CAGATAAG,0.0633
3,CTGGAACA,0.0758
4,GTCCCGCA,-0.14
5,GCGCTGCA,-0.13
6,CCCGCTGC,-0.104
7,CGCGCTGC,-0.21
8,AGTTGATA,0.0143
9,AGTCACTC,-0.161
10,CTGAACAG,-0.0749
11,GACTCACA,-0.0129
12,ACGCGAAA,-0.0414
13,CTCGATCA,0.0468
14,ATCTAGTC,-0.104
15,AAACTTAC,-0.116
16,AAAACTGT,0.107
17,CGTTATGA,0.0413
18,AGCTAAAC,-0.144
19,CGTCCTCC,-0.101
